Source: PubChem BioAssay AID445 (National Center for Advancing Translational Sciences (NCATS), 2006)
The whole screen tested about 110,000 compounds, of which about 40 (0.04%) were called active. The shares of active, inactive and inconclusive entries below differ from those in the screen. The call rests on the fitted dose curve; in most records, active means well fitted curve in the direction sought with a large enough effect in the signal ratio (not every such curve was filed as active); inconclusive means small, poorly fitted or top-dose-only effect, or a change in a side signal; inactive means flat fitted curve, though single readings scatter; the % refers to the signal ratio.

Assay: IkB Signaling;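 further: 0% = basal untreated cells and 100% = reference inhibitor full response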
Settings: ABC-DLBCL IkBa-CBG/CBR dual luciferase ratio (green luciferase fused to IkBa over red control in OCI-Ly3 lymphoma cells), 4 h; IkBa stabilization activation: at 57.1 µM (top of the series), scaled: untreated 0%, proteasome inhibitor 100% unless noted
Procedure, shortened: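 Curves were fitted separately to fusion (green), unfused (red) and ratio luminescence, then classed by r2, magnitude and activity. Cells: OCI-Ly3, 4 h compound plus doxycycline at 37C; 10 uM MG-132 defined full response.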
For CC(C)Oc1ccc(NC(=O)Oc2ccccc2)cc1, the IkBa stabilization activation was “inactive”. In the case of COc1cccc(-n2c(=O)c3sc4ccccc4c3n(CC(=O)Nc3ccccc3C)c2=O)c1, the IkBa stabilization activation is reported as “inactive”. In the case of O=C(CSc1c2c(nc3cc(Cl)ccc13)CCCC2)NCc1ccccc1Cl, the IkBa stabilization activation is reported as inconclusive: 5.92% [signal inhibitor]. With COc1ccc(C2N3CC4(C)CN2CC(c2ccccc2)(C3)C4=O)cc1OC (stereo unspecified) the IkBa stabilization activation was inconclusive: 1.52% [signal inhibitor]. For COc1ccc(C2CC(=O)c3cc(-c4nc(-c5cccc([N+](=O)[O-])c5)cs4)c(=O)n(-c4ccc(OC)cc4)c3C2)cc1 (stereo unspecified), the IkBa stabilization activation was inconclusive: -3.5% [signal inhibitor]. For CCc1ccc(S(=O)(=O)c2nnn3c2nc(NCCNC(C)=O)c2cc(Cl)ccc23)cc1, the IkBa stabilization activation was inconclusive: 1.77% [signal inhibitor]. With COc1cccc(N2C(=O)c3ccncc3C2=O)c1 the IkBa stabilization activation was “inactive”. In the case of COc1ccc(CCN2C(=O)CN(C3CCC(C)CC3)C(=O)C2c2ccc(OC(C)C)c(OC)c2)cc1OC (stereo unspecified), the IkBa stabilization activation is reported as inconclusive: 0.319% [signal inhibitor]. In the case of Cc1ccccc1C(=O)c1cccn1CC(=O)NCc1cccc(Cl)c1, the IkBa stabilization activation is reported as inconclusive: 2.46% [signal inhibitor]. In the case of CCc1nn(CCCC(=O)NC(C)c2ccccc2)c(=O)c2cc3occc3n12 (stereo unspecified), the IkBa stabilization activation is reported as “inactive”. With Cn1c(SCc2ccccc2F)nc2c([nH]c3ccccc32)c1=O the IkBa stabilization activation was “inactive”. With O=[N+]([O-])c1cccc(C(F)(F)F)c1 the IkBa stabilization activation was “inactive”. For CCOC(=O)c1ccc(NC(=O)c2nn(C)c3c2COc2ccccc2-3)cc1, the IkBa stabilization activation was inconclusive: 1.74% [signal inhibitor]. With COc1ccc(Cl)cc1C(=O)Nc1ccc2c(c1)OCO2 the IkBa stabilization activation was “inactive”. For CC(C)(C)OC(=O)N1CCC(c2c(C(=O)N3CCN(C(=O)c4ccco4)CC3)cnn2-c2ccccc2Cl)CC1, the IkBa stabilization activation was “inactive”. With O=C(Cn1c(=O)c2cccn2c2cccnc21)NCc1ccccc1F the IkBa stabilization activation was “inactive”. In the case of CN1CCN(C(CNC(=O)C(=O)Nc2cccc(Cl)c2)c2ccc3c(c2)OCO3)CC1 (stereo unspecified), the IkBa stabilization activation is reported as inconclusive: 10.5% [signal inhibitor]. With CC1=C(C(=O)Nc2ccc(C)cc2C)C(c2ccccc2F)n2nc(SCC(=O)c3ccc(C)cc3)nc2N1 (stereo unspecified) the IkBa stabilization activation was inconclusive: 5.26% [signal inhibitor]. With Cc1cc2nc(-c3ccc(OCc4ccccc4)cc3)cc(C(F)(F)F)n2n1 the IkBa stabilization activation was “inactive”. In the case of COc1ccccc1NC(=O)C1CCC(CNS(=O)(=O)c2ccc3c(c2)CC(C)N3C(C)=O)CC1 (stereo unspecified), the IkBa stabilization activation is reported as inconclusive: 1.24% [signal inhibitor]. For Cc1noc(C)c1COC(=O)c1ccccc1Sc1ccccc1C#N, the IkBa stabilization activation was inconclusive: 5.2% [signal inhibitor].
